pIC50: −log10 of the molar value. Not every detail of the peptide structures is certain; ends, links or a residue may be inferred. At least one compound was matched to its structure with a doubt left. Positions of bridges follow the written chain, without caps; N, C: chain ends. Non-standard residues stand in square brackets, D forms with d. Residues, ends and D or L forms follow the SMILES beside them. *: point of attachment. X1 = O=C(CSCCO)NCCOCCOCCOCCOCCOCCOCCOCCOCCOCCOCCOCCn1cc(CCC(=O)*)nn1; DOTA = O=C(O)CN1CCN(CC(=O)O)CCN(CC(=O)*)CCN(CC(=O)O)CC1; Biotin = O=C1N[C@H]2[C@H](CS[C@H]2CCCCC(=O)*)N1; Abu = CC[C@H](N)C(=O)O; Ahx = NCCCCCC(=O)O
Legend:
Assay type in all cases: cell-based
hNav1.7 = hNav1.7 (Homo sapiens, UniProt Q15858); details: for pIC50: read-out: Nav1.7 Use IC50
Sequence of hNav1.7 (Q15858 whole entry, looked up): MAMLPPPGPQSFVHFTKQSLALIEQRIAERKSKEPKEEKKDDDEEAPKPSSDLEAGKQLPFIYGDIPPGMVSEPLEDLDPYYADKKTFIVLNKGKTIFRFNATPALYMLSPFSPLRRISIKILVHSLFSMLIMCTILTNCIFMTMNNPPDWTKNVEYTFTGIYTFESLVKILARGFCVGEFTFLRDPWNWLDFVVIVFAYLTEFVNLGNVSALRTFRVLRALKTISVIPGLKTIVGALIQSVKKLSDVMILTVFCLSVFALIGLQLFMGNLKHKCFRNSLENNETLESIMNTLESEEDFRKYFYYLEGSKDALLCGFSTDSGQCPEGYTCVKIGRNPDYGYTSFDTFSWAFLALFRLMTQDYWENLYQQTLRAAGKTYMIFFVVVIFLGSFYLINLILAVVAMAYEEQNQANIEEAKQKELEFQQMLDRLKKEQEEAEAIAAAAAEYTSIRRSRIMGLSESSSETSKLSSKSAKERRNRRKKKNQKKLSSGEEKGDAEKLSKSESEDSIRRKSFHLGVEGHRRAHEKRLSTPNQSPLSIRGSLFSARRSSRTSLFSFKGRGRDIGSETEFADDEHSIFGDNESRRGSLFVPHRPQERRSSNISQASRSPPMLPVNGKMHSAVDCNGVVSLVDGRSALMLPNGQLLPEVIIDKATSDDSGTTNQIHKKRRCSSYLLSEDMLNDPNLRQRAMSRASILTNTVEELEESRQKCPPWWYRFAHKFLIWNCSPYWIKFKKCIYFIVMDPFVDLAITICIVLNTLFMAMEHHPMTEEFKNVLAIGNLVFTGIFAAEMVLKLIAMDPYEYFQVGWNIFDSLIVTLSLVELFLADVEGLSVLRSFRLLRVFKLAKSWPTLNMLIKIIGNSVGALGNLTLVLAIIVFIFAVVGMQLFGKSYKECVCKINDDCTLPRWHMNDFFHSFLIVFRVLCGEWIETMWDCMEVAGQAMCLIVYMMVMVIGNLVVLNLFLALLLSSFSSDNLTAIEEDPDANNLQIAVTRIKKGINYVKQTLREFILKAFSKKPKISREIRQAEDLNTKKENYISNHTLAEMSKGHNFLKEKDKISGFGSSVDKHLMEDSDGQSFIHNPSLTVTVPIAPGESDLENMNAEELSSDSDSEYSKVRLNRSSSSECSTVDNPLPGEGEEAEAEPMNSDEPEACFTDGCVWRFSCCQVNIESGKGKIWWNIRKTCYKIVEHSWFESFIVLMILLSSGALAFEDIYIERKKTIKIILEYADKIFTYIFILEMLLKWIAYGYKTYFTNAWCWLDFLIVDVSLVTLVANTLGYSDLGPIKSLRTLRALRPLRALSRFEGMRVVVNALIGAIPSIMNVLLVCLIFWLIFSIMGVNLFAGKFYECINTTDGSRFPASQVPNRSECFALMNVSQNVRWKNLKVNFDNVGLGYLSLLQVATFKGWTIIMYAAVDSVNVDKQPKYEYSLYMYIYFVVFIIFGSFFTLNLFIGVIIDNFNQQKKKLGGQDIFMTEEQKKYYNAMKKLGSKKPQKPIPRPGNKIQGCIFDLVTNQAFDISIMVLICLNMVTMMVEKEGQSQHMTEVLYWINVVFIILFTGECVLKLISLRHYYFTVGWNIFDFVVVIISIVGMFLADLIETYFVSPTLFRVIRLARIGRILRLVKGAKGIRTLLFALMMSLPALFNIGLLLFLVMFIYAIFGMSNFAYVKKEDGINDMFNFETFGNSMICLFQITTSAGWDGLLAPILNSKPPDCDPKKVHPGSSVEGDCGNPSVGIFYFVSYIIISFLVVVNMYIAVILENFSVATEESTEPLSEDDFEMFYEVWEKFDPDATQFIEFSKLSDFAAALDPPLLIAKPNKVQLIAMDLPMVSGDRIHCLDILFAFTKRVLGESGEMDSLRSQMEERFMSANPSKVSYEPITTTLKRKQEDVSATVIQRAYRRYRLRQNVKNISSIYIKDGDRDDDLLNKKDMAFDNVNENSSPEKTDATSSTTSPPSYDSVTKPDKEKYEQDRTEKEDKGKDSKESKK

hNav1.4 = hNav1.4 (Homo sapiens, UniProt P35499); details: read-out: Nav1.4 Use IC50
hNav1.5 = hNav1.5 (Homo sapiens, UniProt Q14524); details: read-out: Nav1.5 Use IC50
Sequence of hNav1.5 (Q14524 whole entry, looked up): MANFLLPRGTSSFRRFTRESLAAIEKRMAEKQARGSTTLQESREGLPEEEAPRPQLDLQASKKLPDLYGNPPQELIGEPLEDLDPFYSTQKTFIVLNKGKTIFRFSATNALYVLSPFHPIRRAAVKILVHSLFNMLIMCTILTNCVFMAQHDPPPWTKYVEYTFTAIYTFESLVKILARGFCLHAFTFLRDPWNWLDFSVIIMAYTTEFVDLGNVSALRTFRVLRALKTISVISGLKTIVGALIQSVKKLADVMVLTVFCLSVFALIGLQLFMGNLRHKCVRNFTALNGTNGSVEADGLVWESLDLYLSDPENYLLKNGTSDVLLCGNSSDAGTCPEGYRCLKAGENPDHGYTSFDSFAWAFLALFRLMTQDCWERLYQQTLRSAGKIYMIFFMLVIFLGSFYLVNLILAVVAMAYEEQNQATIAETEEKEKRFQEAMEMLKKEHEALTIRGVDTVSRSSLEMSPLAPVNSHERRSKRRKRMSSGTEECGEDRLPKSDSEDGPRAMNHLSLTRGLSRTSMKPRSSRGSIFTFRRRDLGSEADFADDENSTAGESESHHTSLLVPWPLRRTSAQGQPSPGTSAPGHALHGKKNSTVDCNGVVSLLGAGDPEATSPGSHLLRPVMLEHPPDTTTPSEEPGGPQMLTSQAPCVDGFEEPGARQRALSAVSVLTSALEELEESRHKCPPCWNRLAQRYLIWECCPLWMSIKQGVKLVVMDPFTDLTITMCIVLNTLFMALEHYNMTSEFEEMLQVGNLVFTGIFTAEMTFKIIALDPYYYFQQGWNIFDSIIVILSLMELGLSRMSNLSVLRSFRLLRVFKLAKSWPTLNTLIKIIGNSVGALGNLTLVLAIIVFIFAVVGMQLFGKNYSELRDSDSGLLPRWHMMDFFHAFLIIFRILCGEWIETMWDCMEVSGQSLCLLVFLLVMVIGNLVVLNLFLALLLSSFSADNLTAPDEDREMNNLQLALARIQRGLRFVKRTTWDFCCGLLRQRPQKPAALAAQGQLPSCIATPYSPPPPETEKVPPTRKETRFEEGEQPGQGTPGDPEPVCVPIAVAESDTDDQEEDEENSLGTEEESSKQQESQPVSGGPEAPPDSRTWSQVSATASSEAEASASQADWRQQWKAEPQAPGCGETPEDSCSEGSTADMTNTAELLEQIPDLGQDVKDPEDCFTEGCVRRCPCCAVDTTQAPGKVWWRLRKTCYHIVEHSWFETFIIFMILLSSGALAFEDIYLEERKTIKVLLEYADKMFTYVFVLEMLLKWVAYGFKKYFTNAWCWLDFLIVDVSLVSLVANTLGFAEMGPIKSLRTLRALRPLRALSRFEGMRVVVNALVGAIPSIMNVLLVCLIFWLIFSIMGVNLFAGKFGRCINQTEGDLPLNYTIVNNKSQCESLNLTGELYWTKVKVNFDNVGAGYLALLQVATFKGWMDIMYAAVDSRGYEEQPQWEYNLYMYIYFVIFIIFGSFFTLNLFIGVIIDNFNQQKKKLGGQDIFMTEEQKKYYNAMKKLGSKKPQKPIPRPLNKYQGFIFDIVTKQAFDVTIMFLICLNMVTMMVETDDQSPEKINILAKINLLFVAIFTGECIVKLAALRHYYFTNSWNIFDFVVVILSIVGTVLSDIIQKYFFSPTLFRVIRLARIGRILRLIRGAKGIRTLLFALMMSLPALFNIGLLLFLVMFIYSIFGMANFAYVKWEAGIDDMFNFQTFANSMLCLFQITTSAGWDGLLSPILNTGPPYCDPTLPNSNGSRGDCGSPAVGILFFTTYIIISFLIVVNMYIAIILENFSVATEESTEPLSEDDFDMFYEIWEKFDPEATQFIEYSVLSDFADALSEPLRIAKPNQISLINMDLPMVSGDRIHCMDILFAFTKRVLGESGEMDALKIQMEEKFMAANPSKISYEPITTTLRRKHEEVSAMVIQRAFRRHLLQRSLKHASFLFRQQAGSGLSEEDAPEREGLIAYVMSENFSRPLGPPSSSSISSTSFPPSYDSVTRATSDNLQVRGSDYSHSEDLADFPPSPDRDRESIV

## CC[C@@H]1NC(=O)CNC(=O)[C@H](CC(C)C)NC(=O)[C@@H](NC(=O)[C@H](CC(=O)O)NC(=O)CCCCCNC(=O)CCCC[C@@H]2SC[C@@H]3NC(=O)N[C@@H]32)CSSC[C@@H]2NC(=O)[C@@H]3CSSC[C@@H](C(=O)N[C@@H](CCCCN)C(=O)N[C@@H](Cc4ccc(O)cc4)C(=O)N[C@H](C(=O)N[C@@H](Cc4ccccc4)C(N)=O)C(C)C)NC(=O)[C@H](Cc4c[nH]c5ccccc45)NC(=O)[C@H](CCCNC(=N)N)NC(=O)[C@H](Cc4c[nH]cn4)NC(=O)[C@H]([C@@H](C)O)NC(=O)[C@H](CCCNC(=N)N)NC(=O)[C@H](CO)NC(=O)[C@H](CSSC[C@H](NC(=O)[C@H](CCCCN)NC(=O)[C@H](CCCNC(=N)N)NC(=O)[C@H](CC(C)C)NC1=O)C(=O)N[C@@H]([C@@H](C)CC)C(=O)N1CCC[C@H]1C(=O)N[C@@H](CC(=O)O)C(=O)N[C@@H](CC)C(=O)N[C@@H](CC(=O)O)C(=O)N[C@@H](CCCCN)C(=O)N3)NC(=O)[C@H](C(C)C)NC(=O)[C@H](CC(C)C)NC(=O)[C@H](CC(N)=O)NC(=O)[C@@H]1CCCN1C(=O)[C@H](CCCNC(=N)N)NC2=O ({Biotin-Ahx}-DCLG[Abu]LRKCIPD[Abu]DKCCRPNLVCSRTHRWCKYVF-NH2; disulfide 2-17, 9-23, 16-30)
hNav1.7
  pIC50: 7.96
hNav1.4
  pIC50: 4.56
hNav1.5
  pIC50: < 5.00

## CC[C@@H]1NC(=O)CNC(=O)[C@H](CC(C)C)NC(=O)[C@@H](NC(=O)[C@@H](N)CC(=O)O)CSSC[C@@H]2NC(=O)[C@@H]3CSSC[C@@H](C(=O)N[C@@H](CCCCN)C(=O)N[C@@H](Cc4ccc(O)cc4)C(=O)N[C@H](C(=O)N[C@@H](Cc4ccccc4)C(N)=O)C(C)C)NC(=O)[C@H](Cc4c[nH]c5ccccc45)NC(=O)[C@H](CCCNC(=N)N)NC(=O)[C@H](Cc4c[nH]cn4)NC(=O)[C@H]([C@@H](C)O)NC(=O)[C@H](CCCNC(=N)N)NC(=O)[C@H](CO)NC(=O)[C@H](CSSC[C@H](NC(=O)[C@H](CCCCN)NC(=O)[C@H](CCCNC(=N)N)NC(=O)[C@H](CC(C)C)NC1=O)C(=O)N[C@@H]([C@@H](C)CC)C(=O)N1CCC[C@H]1C(=O)N[C@@H](CC(=O)O)C(=O)N[C@@H](CCCCNC(=O)CCc1cn(CCOCCOCCOCCOCCOCCOCCOCCOCCOCCOCCOCCNC(=O)CSCCO)nn1)C(=O)N[C@@H](CC(=O)O)C(=O)N[C@@H](CCCCN)C(=O)N3)NC(=O)[C@H](C(C)C)NC(=O)[C@H](CC(C)C)NC(=O)[C@H](CC(N)=O)NC(=O)[C@@H]1CCCN1C(=O)[C@H](CCCNC(=N)N)NC2=O (H-DCLG[Abu]LRKCIPDK(X1)DKCCRPNLVCSRTHRWCKYVF-NH2; disulfide 2-17, 9-23, 16-30)
hNav1.7
  Nav1.4/Nav1.7 Use: 549
  Nav1.5/Nav1.7 Use: >556
  pIC50: 7.74
hNav1.4
  pIC50: 5.01
hNav1.5
  pIC50: < 5.00

## CC[C@@H]1NC(=O)[C@H](CC(=O)O)NC(=O)[C@@H]2CCCN2C(=O)[C@H]([C@@H](C)CC)NC(=O)[C@@H]2CSSC[C@@H]3NC(=O)[C@H](C(C)C)NC(=O)[C@H](CC(C)C)NC(=O)[C@H](CC(N)=O)NC(=O)[C@@H]4CCCN4C(=O)[C@H](CCCNC(=N)N)NC(=O)[C@H](CSSC[C@H](NC(=O)[C@H](CC(=O)O)NC(=O)CCc4cn(CCOCCOCCOCCOCCOCCOCCOCCOCCOCCOCCOCCNC(=O)CSCCO)nn4)C(=O)N[C@@H](CC(C)C)C(=O)NCC(=O)N[C@@H](C)C(=O)N[C@@H](Cc4ccccc4)C(=O)N[C@@H](CCCNC(=N)N)C(=O)N[C@@H](CCCCN)C(=O)N2)NC(=O)[C@H](CSSC[C@@H](C(=O)N[C@@H](CCCCN)C(=O)N[C@@H](Cc2ccc(O)cc2)C(=O)N[C@H](C(=O)N[C@@H](Cc2ccccc2)C(N)=O)C(C)C)NC(=O)[C@H](Cc2c[nH]c4ccccc24)NC(=O)[C@H](CCCNC(=N)N)NC(=O)[C@H](Cc2c[nH]cn2)NC(=O)[C@H]([C@@H](C)O)NC(=O)[C@H](CCCNC(=N)N)NC(=O)[C@H](CO)NC3=O)NC(=O)[C@H](CCCCN)NC(=O)[C@H](CC(=O)O)NC1=O (X1-DCLGAFRKCIPD[Abu]DKCCRPNLVCSRTHRWCKYVF-NH2; disulfide 2-17, 9-23, 16-30)
hNav1.7
  Nav1.4/Nav1.7 Use: 130
  Nav1.5/Nav1.7 Use: >135
  pIC50: 7.13
hNav1.4
  pIC50: 5.02
hNav1.5
  pIC50: < 5.00

## CC[C@H](C)[C@@H]1NC(=O)[C@@H]2CSSC[C@@H]3NC(=O)[C@H](C(C)C)NC(=O)[C@H](CC(C)C)NC(=O)[C@H](CC(N)=O)NC(=O)[C@@H]4CCCN4C(=O)[C@H](CCCNC(=N)N)NC(=O)[C@H](CSSC[C@H](NC(=O)[C@H](CC(=O)O)NC(=O)[C@H](CO)NC(=O)CN)C(=O)N[C@@H](CC(C)C)C(=O)NCC(=O)N[C@@H](C)C(=O)N[C@@H](CC(C)C)C(=O)N[C@@H](CCCNC(=N)N)C(=O)N[C@@H](CCCCN)C(=O)N2)NC(=O)[C@H](CSSC[C@@H](C(=O)N[C@@H](CCCCN)C(=O)N[C@@H](Cc2ccc(O)cc2)C(=O)N[C@H](C(=O)N[C@@H](Cc2ccccc2)C(N)=O)C(C)C)NC(=O)[C@H](Cc2c[nH]c4ccccc24)NC(=O)[C@H](CCCNC(=N)N)NC(=O)[C@H](Cc2c[nH]cn2)NC(=O)[C@H]([C@@H](C)O)NC(=O)[C@H](CCCNC(=N)N)NC(=O)[C@H](CO)NC3=O)NC(=O)[C@H](CCCCN)NC(=O)[C@H](CC(=O)O)NC(=O)[C@H](CC(N)=O)NC(=O)[C@H](CC(=O)O)NC(=O)[C@@H]2CCCN2C1=O [Gly-Ser-[Ala5;Leu6;Arg28]GpTx-1(1-34)] (H-GSDCLGALRKCIPDNDKCCRPNLVCSRTHRWCKYVF-NH2; disulfide 4-19, 11-25, 18-32)
hNav1.7
  pIC50: 7.92
hNav1.5
  pIC50: < 5.00

## CC[C@H](C)[C@@H]1NC(=O)[C@@H]2CSSC[C@@H]3NC(=O)[C@H](C(C)C)NC(=O)[C@H](CC(C)C)NC(=O)[C@H](CC(N)=O)NC(=O)[C@@H]4CCCN4C(=O)[C@H](CCCNC(=N)N)NC(=O)[C@H](CSSC[C@H](NC(=O)[C@H](CC(=O)O)NC(=O)CN4CCN(CC(=O)O)CCN(CC(=O)O)CCN(CC(=O)O)CC4)C(=O)N[C@@H](CC(C)C)C(=O)NCC(=O)N[C@@H](C)C(=O)N[C@@H](CCSC)C(=O)N[C@@H](CCCNC(=N)N)C(=O)N[C@@H](CCCCN)C(=O)N2)NC(=O)[C@H](CSSC[C@@H](C(=O)N[C@@H](CCCCN)C(=O)N[C@@H](Cc2ccc(O)cc2)C(=O)N[C@H](C(=O)N[C@@H](Cc2ccccc2)C(N)=O)C(C)C)NC(=O)[C@H](Cc2c[nH]c4ccccc24)NC(=O)[C@H](CCCCN)NC(=O)[C@H](Cc2c[nH]cn2)NC(=O)[C@H]([C@@H](C)O)NC(=O)[C@H](CCCNC(=N)N)NC(=O)[C@H](CO)NC3=O)NC(=O)[C@H](CCCCN)NC(=O)[C@H](CC(=O)O)NC(=O)[C@H](CC(N)=O)NC(=O)[C@H](CC(=O)O)NC(=O)[C@@H]2CCCN2C1=O [DOTA-[Ala5]GpTx-1(1-34)] ({DOTA}-DCLGAMRKCIPDNDKCCRPNLVCSRTHKWCKYVF-NH2; disulfide 2-17, 9-23, 16-30)
hNav1.7
  Nav1.4/Nav1.7 Use: >66
  Nav1.5/Nav1.7 Use: >66
  pIC50: 6.82
hNav1.4
  pIC50: < 5.00
hNav1.5
  pIC50: < 5.00

## CC[C@H](C)[C@@H]1NC(=O)[C@@H]2CSSC[C@@H]3NC(=O)[C@H](C(C)C)NC(=O)[C@H](CC(C)C)NC(=O)[C@H](CC(N)=O)NC(=O)[C@@H]4CCCN4C(=O)[C@H](CCCNC(=N)N)NC(=O)[C@H](CSSC[C@H](NC(=O)[C@H](CC(=O)O)NC(=O)[C@H](CO)NC(=O)CN)C(=O)N[C@@H](CC(C)C)C(=O)NCC(=O)N[C@@H](C)C(=O)N[C@@H](Cc4ccccc4)C(=O)N[C@@H](CCCNC(=N)N)C(=O)N[C@@H](CCCCN)C(=O)N2)NC(=O)[C@H](CSSC[C@@H](C(=O)N[C@@H](CCCCN)C(=O)N[C@@H](Cc2ccc(O)cc2)C(=O)N[C@H](C(=O)N[C@@H](Cc2ccccc2)C(N)=O)C(C)C)NC(=O)[C@H](Cc2c[nH]c4ccccc24)NC(=O)[C@H](CCCNC(=N)N)NC(=O)[C@H](Cc2c[nH]cn2)NC(=O)[C@H]([C@@H](C)O)NC(=O)[C@H](CCCNC(=N)N)NC(=O)[C@H](CO)NC3=O)NC(=O)[C@H](CCCCN)NC(=O)[C@H](CC(=O)O)NC(=O)[C@H](CC(N)=O)NC(=O)[C@H](CC(=O)O)NC(=O)[C@@H]2CCCN2C1=O [Gly-Ser-[Ala5;Phe6;Arg28]GpTx-1(1-34)] (H-GSDCLGAFRKCIPDNDKCCRPNLVCSRTHRWCKYVF-NH2; disulfide 4-19, 11-25, 18-32)
hNav1.7
  pIC50: 7.96
hNav1.5
  pIC50: < 5.00

## CC[C@@H]1NC(=O)CNC(=O)[C@H](CC(C)C)NC(=O)[C@@H](NC(=O)[C@H](CC(=O)O)NC(=O)CCc2cn(CCOCCOCCOCCOCCOCCOCCOCCOCCOCCOCCOCCNC(=O)CSCCO)nn2)CSSC[C@@H]2NC(=O)[C@@H]3CSSC[C@@H](C(=O)N[C@@H](CCCCN)C(=O)N[C@@H](Cc4ccc(O)cc4)C(=O)N[C@H](C(=O)N[C@@H](Cc4ccccc4)C(N)=O)C(C)C)NC(=O)[C@H](Cc4c[nH]c5ccccc45)NC(=O)[C@H](CCCNC(=N)N)NC(=O)[C@H](Cc4c[nH]cn4)NC(=O)[C@H]([C@@H](C)O)NC(=O)[C@H](CCCNC(=N)N)NC(=O)[C@H](CO)NC(=O)[C@H](CSSC[C@H](NC(=O)[C@H](CCCCN)NC(=O)[C@H](CCCNC(=N)N)NC(=O)[C@H](CC(C)C)NC1=O)C(=O)N[C@@H]([C@@H](C)CC)C(=O)N1CCC[C@H]1C(=O)N[C@@H](CC(=O)O)C(=O)N[C@@H](CC)C(=O)N[C@@H](CC(=O)O)C(=O)N[C@@H](CCCCN)C(=O)N3)NC(=O)[C@H](C(C)C)NC(=O)[C@H](CC(C)C)NC(=O)[C@H](CC(N)=O)NC(=O)[C@@H]1CCCN1C(=O)[C@H](CCCNC(=N)N)NC2=O (X1-DCLG[Abu]LRKCIPD[Abu]DKCCRPNLVCSRTHRWCKYVF-NH2; disulfide 2-17, 9-23, 16-30)
hNav1.7
  Nav1.4/Nav1.7 Use: >115
  Nav1.5/Nav1.7 Use: >115
  pIC50: 7.06
hNav1.4
  pIC50: < 5.00
hNav1.5
  pIC50: < 5.00
